The source of these data is PubChem BioAssay AID1159614 (National Center for Advancing Translational Sciences (NCATS), 2016).

The whole screen tested about 45,000 compounds, of which about 65 (0.1%) were called active. The call rests on the fitted dose curve; in most records, active means well fitted activation curve with a large enough effect; inconclusive means small, poorly fitted or top-dose-only effect; inactive means no such curve, though single readings can be large or run the other way. This is one part of the list.

In this assay the target is Galactocerebrosidase (Homo sapiens) (UniProt P54803). Description: A Novel Cell-Based Assay to Identify Small Molecules for B -Galactocerebrosidase. Further: 0% is about no effect; nearly all actives have a fitted effect of over 65% in size. Conditions: 145M-Twi-hGALC-G270D cells (Twitcher mouse brain line with human GALC G270D), HMU-beta-Gal fluorescence, 48 h; series mostly up to 57.5 µM; activation: at the top concentration. Put shortly: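 Live 145M-Twi cells (Twitcher mouse brain-derived, GALC-null) stably expressing human GALC-G270D, with a wild-type GALC line, were compound-treated. Residual GALC activity was then read as fluorescence from 0.1 mM final HMU-β-gal at pH 5.2; higher signal means activation.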
Chain of UniProt P54803 (P54803 whole entry, looked up): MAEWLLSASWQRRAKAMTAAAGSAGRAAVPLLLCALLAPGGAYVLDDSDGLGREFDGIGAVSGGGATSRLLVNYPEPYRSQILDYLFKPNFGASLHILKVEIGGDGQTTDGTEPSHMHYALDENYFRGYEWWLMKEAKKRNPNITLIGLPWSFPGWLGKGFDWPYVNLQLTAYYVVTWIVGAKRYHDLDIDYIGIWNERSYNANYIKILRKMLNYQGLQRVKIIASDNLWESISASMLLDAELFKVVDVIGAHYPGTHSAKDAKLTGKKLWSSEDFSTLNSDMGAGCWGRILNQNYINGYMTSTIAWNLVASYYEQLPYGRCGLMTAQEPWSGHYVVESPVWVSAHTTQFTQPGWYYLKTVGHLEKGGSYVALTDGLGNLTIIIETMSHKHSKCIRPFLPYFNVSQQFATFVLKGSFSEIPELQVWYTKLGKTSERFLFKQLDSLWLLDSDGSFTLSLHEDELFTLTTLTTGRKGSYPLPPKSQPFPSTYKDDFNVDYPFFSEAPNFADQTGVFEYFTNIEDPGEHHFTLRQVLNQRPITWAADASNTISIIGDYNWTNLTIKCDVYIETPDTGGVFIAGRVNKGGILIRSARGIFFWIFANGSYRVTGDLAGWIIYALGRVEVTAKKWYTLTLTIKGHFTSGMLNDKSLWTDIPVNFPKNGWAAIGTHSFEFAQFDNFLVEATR
Take `Cc1ccc(Cl)cc1N1CCN(C(=O)c2sc3nc4n(c(=O)c3c2C)CCC4)CC1`: the “activation” value is inactive: -17.4%.
As for `CCN(CC)C(=O)Cn1cc(SCC(=O)Nc2cc(OC)ccc2OC)c2ccccc21`, the “activation” value was inactive: 1.84%.
Regarding `CN(C)CCNC(=O)c1ccc2nc(Cc3ccccc3)oc2c1`, the “activation” value is inactive: -10.5%.
To `CSc1ccc(CCNC(=O)c2c(C)nn(-c3ccc(F)cc3)c2-n2cccc2)cc1` belongs inactive: -7.63%; to `O=C(NCc1ccc(Cl)cc1)C1CCN(S(=O)(=O)c2ccc(F)cc2)CC1`, inactive: -5.86%.
Regarding `COc1ccc(C(=O)NCC(c2ccc(N(C)C)cc2)N2CCOCC2)cc1` (stereo not given), the “activation” value is inactive: -8.36%.
In the case of `CCOC(=O)c1noc2ncn(Cc3ccc([N+](=O)[O-])cc3)c(=O)c12`, the “activation” value was inactive: 5.23%.
With `Cc1ccc(CSc2nc3ccc(NC(=O)CC(C)C)cc3s2)cc1` the figure was inactive: 1.45%.
To `CCC(C)n1c(SCc2ccc(F)cc2Cl)nc2ccsc2c1=O` (stereo not given) belongs inactive: -8.57%; to `CCC(CC)C(=O)Nc1ccc2nc(SCC(=O)N3CCOCC3)sc2c1`, inactive: -14.1%.
As for `Cc1ccccc1C(=O)Nc1sc2c(c1C(=O)N1CCCCC1)CCC(C(C)(C)C)C2` (stereo not given), the “activation” value was inactive: -11%.
With `CCOc1ccc(NC(=O)c2c(NC(=O)c3cccc(C)c3)sc3c2CCC3)cc1` the figure was inactive: -14%; with `CC1=C(c2ccc(C(C)C)cc2)S(=O)(=O)N=C1N1CCC(C(=O)NCc2ccco2)CC1`, inactive: -11.1%.
To `O=C(NCC1CCN(Cc2cccc(F)c2)CC1)c1cc2ccc3cccnc3c2[nH]1` belongs inactive: -8.74%.
On to `CCOC(=O)c1c(NC(=O)CSc2cn(CCNC(=O)c3ccccc3OC)c3ccccc23)sc2c1CCCC2`, for which the “activation” value was inactive: -12.4%.
Consider `Cc1cc(C)cc(NC(=O)CN2C(=O)CSc3ccc(S(=O)(=O)N4CCCC4)cc32)c1`, for which the “activation” value was inactive: -8.84%.
To `CCOc1ccc(NC(=O)Cn2c(=O)n(Cc3ccccc3)c(=O)c3sc4ccccc4c32)cc1` belongs inactive: -15.2%; to `Cc1c(C(=O)NCCc2ccccc2)cccc1-n1cnc2cccnc21`, inactive: -15.3%.
Consider `CCc1ccc(NC(=O)CC2C(=O)N(c3ccc(OC)cc3)C(=O)N2Cc2ccc(OC)cc2)cc1` (stereo not given), for which the “activation” value is inactive: -23.1%.
Take `COc1ccc(CCNc2ncnc3c2c(-c2ccccc2)cn3-c2cccc(Cl)c2)cc1OC`: the “activation” value is inactive: -33.1%.
To `COc1ccccc1N1CCN(S(=O)(=O)CCNC(=O)COc2ccc(F)cc2)CC1` belongs inactive: -32.7%; to `Cc1ccc(CNC(=O)Cn2c(=O)cc(-c3ccccc3)c3c(C)nn(C)c32)cc1`, inactive: 0.43%; to `Cc1ccn2c(=O)c(C(=O)NCCc3ccc(S(N)(=O)=O)cc3)c(O)nc2c1`, inactive: 7.88%.
As for `Cc1cc(=O)n(Cc2ccc(F)cc2Cl)c2c1c(C)nn2-c1ccccc1`, the “activation” value was inactive: -9.8%.
In the case of `COc1ccccc1CNC(=O)C1CCN(S(=O)(=O)c2c(C)noc2/C=C/c2cccs2)CC1`, the “activation” value was inactive: -14.4%.
On to `CCn1c(=O)c2sccc2n2c(CCCC(=O)N3CCN(c4cc(C)ccc4C)CC3)nnc12`, for which the “activation” value is inactive: -6.96%.
Regarding `COc1cc(C2C(C(=O)OC(C)C)=C(C)N=C3SCCC(=O)N32)ccc1OCc1ccccc1` (stereo not given), the “activation” value is inactive: -2.23%.
To `COc1ccc(NC(=O)NCc2cccn2Cc2ccc(F)cc2)cc1OC` belongs inactive: -6.71%.
In the case of `Cc1cc(Nc2ccccc2Cl)n2nc(-c3ccco3)nc2n1`, the “activation” value was inactive: -11.1%.
In the case of `COc1cccc(NC(=O)N(Cc2cn(C)c3ccccc23)C2CCCCC2)c1`, the “activation” value is inactive: 4.25%.
To `COc1ccc(OC)c(NC(=O)c2c(NCc3ccc(C)o3)sc3c2CCCCC3)c1` belongs inactive: -26.9%.
To `Cc1ccc(NCc2ccccc2-c2nnc(-c3ccccc3Cl)o2)cc1Cl` belongs inactive: -14.5%.
For the compound `COc1ccc(N2C(=O)CSC23C(=O)N(CC(=O)NCc2ccccc2)c2ccccc23)cc1` (stereo not given), the “activation” value is inactive: -16.1%.
For the compound `CS(=O)(=O)NCCc1csc2nc(-c3ccccc3)nn12`, the “activation” value is inactive: -12.7%.
Take `COc1ccc(S(=O)(=O)NC2(C(F)(F)F)NC(=O)N(CCc3ccc(OC)c(OC)c3)C2=O)cc1` (stereo not given): the “activation” value was inactive: 11%.
To `COc1ccccc1CNC(=O)CCCn1nc(C)c2c(C)n(-c3ccc(C)cc3)nc2c1=O` belongs inactive: -12.7%.
With `Cc1nc2ccn(Cc3cccnc3)c(=O)c2cc1C(=O)NCc1ccc(Cl)cc1` the figure was inactive: -15.1%; with `O=C(NCCc1ccccc1)C(=O)NCC(c1cccnc1)N1CCN(c2ccccc2)CC1` (stereo not given), inactive: -3.36%.
To `Cc1cccc2c1-c1sc(C(=O)N3CCN(c4ccc(F)cc4)CC3)cc1CO2` belongs inactive: -5.11%.
With `CC(=O)c1ccc(N2CCN(S(=O)(=O)c3cc(-c4onc(C)c4C)ccc3C)CC2)cc1`, the “activation” value is inactive: -3.94%.
Regarding `Cc1ccccc1CNC(=O)CCCn1c(=O)c2cccn2c2ccccc21`, the “activation” value is inactive: 15.6%.
For the compound `O=C(Cn1cc(S(=O)(=O)N2CCN(c3ccccc3F)CC2)c2ccccc2c1=O)Nc1cccc(C(F)(F)F)c1`, the “activation” value is inactive: -12.1%.
With `O=C(CSc1nnc2scc(-c3ccc(Cl)cc3)n12)Nc1ccccc1F` the figure was inactive: -3.26%; with `Cc1ccc2onc(CC(=O)Nc3cc(F)ccc3F)c2c1`, inactive: -11.2%; with `Cc1ccc(-c2cc(C(F)(F)F)n3nc(C(=O)Nc4sc5c(c4C#N)CCC(C)C5)cc3n2)cc1` (stereo not given), inactive: -3.35%.
In the case of `COC(=O)c1c(SC)nc2ccccc2c1OCc1ccc(C)cc1C`, the “activation” value was inactive: -18.4%.
Consider `COc1cc(C(=O)Nc2ccc(Cl)c(-c3nc4ncccc4o3)c2)cc(OC)c1OC`, for which the “activation” value was inactive: 8.83%.
As for `COc1ccc(C(=O)Nc2ccc3c(c2)N(C2CCCC2)C(=O)c2ccccc2S3)cc1OC`, the “activation” value is inactive: -9.49%.
With `CC(CNC(=O)c1ccc(CSc2nc3ccncc3n2Cc2cccc(F)c2)cc1)c1ccccc1` (stereo not given), the “activation” value was inactive: -11.7%.
For the compound `Cc1ccc(C)c(-c2nn(CC(=O)Nc3cc(F)ccc3F)c(=O)c3c2CCCC3)c1`, the “activation” value is inactive: -11.6%.
For `CCOc1cccc(CC(=O)N2CCc3c([nH]c4ccccc34)C2c2ccc(C)cc2)c1OCC` (stereo not given), the “activation” value is inactive: -1.08%.
To `CCn1cc(C(=O)OCC(=O)Nc2cccc(Cl)c2C)c(=O)c2ccc(C)nc21` belongs inactive: -10.7%.
Regarding `C=Cc1ccc(CSc2nc(-c3ccccc3C)nc3c2Cc2c(CO)cnc(C)c2O3)cc1`, the “activation” value is inactive: -10.5%.
For `CCC1CCCCN1S(=O)(=O)c1ccc2c(c1)CCCN2C(C)=O` (stereo not given), the “activation” value is inactive: -13.8%.
With `CCc1ccccc1N(C)C(=O)Nc1cn(CC(C)C)c(=O)c2ccccc12`, the “activation” value is inactive: -26.6%.
With `COCCNC(=O)CN1C(=O)COc2ccc(S(=O)(=O)N3CCOCC3)cc21` the figure was inactive: -7.28%; with `O=C(CSc1nc(=O)n(Cc2ccco2)c2c1CCC2)NCc1ccccc1Cl`, inactive: -8.4%; with `CCOc1ccc(N2CC(NC(=O)c3ccc(S(=O)(=O)N4CCOCC4)cc3)CC2=O)cc1` (stereo not given), inactive: -2.51%.
For `Cc1cc(N2CCN(C)CC2)nc2ccc(NC(=O)Nc3ccc(Cl)cc3)cc12`, the “activation” value was inactive: -14.4%.
To `COC(=O)c1scc(-c2ccc(C)cc2)c1S(=O)(=O)Nc1ccc(OC(F)(F)F)cc1` belongs inactive: -6.65%.
With `N#Cc1ccc(NC(=O)COCc2cc(-c3ccc4c(c3)OCO4)on2)cc1`, the “activation” value was inactive: -17.7%.
Take `CCOc1ccc(CNC(=O)CCn2c(=O)c3cccn3c3cccnc32)cc1`: the “activation” value was inactive: 6.2%.
Turning to `COc1ccc(C)cc1NC(=O)Cn1nc(N2CCN(c3ccccc3OC)CC2)ccc1=O`, the “activation” value was inactive: -1.56%.
In the case of `COc1ccccc1Cc1nc2ccccc2nc1SCC(=O)NCc1ccc(C)cc1`, the “activation” value was inactive: -5.75%.
For `O=C(COCc1cc(-c2ccco2)on1)Nc1cc(Cl)ccc1O`, the “activation” value was inactive: -12%.
Take `COc1ccc(-c2nc(SCC(=O)NC3CCCC3)c(-c3ccc(F)cc3)[nH]2)cc1OC`: the “activation” value is inactive: -20.6%.
Turning to `COc1ccccc1CNC(=O)C(=O)NCC(c1cccnc1)N1CCN(c2ccccc2)CC1` (stereo not given), the “activation” value is inactive: -10.4%.
To `Cc1noc(C)c1S(=O)(=O)N(CC(=O)NCc1ccccc1)c1ccc(C(C)C)cc1` belongs inactive: -2.62%; to `COc1ccc(CC(=O)N2CCc3c([nH]c4ccccc34)C2c2ccc(SC)cc2)cc1` (stereo not given), inactive: -2.27%.
Take `CC1CCN(C(c2ccc(F)cc2)c2sc3nc(-c4ccco4)nn3c2O)CC1` (stereo not given): the “activation” value is inactive: -0.671%.
Consider `COCCNC(=O)CCn1nc(-c2ccc(Cl)cc2)c2ccccc2c1=O`, for which the “activation” value is inactive: -8.89%.
As to `CC(=O)N1CCCc2cc(S(=O)(=O)Nc3ccc(Cl)cc3F)ccc21`, the “activation” value was inactive: -10.4%.
With `CC(=C(CCOC(=O)C(C)C)SSC(CCOC(=O)C(C)C)=C(C)N(C=O)Cc1cnc(C)nc1N)N(C=O)Cc1cnc(C)nc1N` the figure was inactive: -9.87%.
As for `O=C(Nc1ccc2oc(-c3cccnc3)nc2c1)c1ccccc1F`, the “activation” value is inactive: -41.4%.
As to `O=C(c1ccc2c(c1)N(Cc1ccccc1)C(=O)c1ccccc1S2(=O)=O)N1CCOCC1`, the “activation” value was inactive: -1.56%.
Take `CCc1ccc(-n2c(N3CCN(c4ccc(F)cc4)CC3)nc3ccccc3c2=O)cc1`: the “activation” value was inactive: 0.379%.
`COc1ccc(NC(=O)C(NC(=O)/C=C\c2ccc3c(c2)OCO3)c2ccc(C)cc2)cc1` (stereo not given): the “activation” value is inactive: -29.5%.
With `COc1ccc(C(=O)N2CCN(C(=O)COc3ccccc3)CC2)cc1OC` the figure was inactive: -14.2%; with `Cc1cc(S(=O)(=O)Nc2cc3c(cc2N2CCOCC2)n(C)c(=O)c(=O)n3C)ccc1F`, inactive: -1.83%.
As to `COc1ccc(-c2nc3n(n2)C(c2ccc(O)cc2)C(C(=O)Nc2cccnc2)=C(C)N3)cc1OC` (stereo not given), the “activation” value is inactive: -9.28%.
As to `O=C(Nc1cccc(Br)c1)c1cc(S(=O)(=O)N2CCCCC2)c[nH]1`, the “activation” value was inactive: -6.28%.
With `CC/C(=C(\c1ccccc1)c1ccc(OCCN(C)C)cc1)c1ccccc1` the figure was inactive: -15.8%; with `COc1ccc(C(=O)Nc2nc(-c3ccc(Br)cc3)ns2)cc1`, inactive: -12.9%.
With `Cc1csc2nc(COc3ccc(NC(=O)c4ccccc4F)cc3)cc(=O)n12` the figure was inactive: 12.2%.
As for `CCCNC(=O)c1ccc(Cn2c(SCC(=O)NC(C)C)nc3ccccc3c2=O)cc1`, the “activation” value was inactive: 11.7%.
Take `CCOCCc1nn2c(=O)cc(COC(=O)c3ccc(NC(=O)c4cccs4)cc3)nc2s1`: the “activation” value was inactive: 9.47%.
In the case of `Cc1cccc(C(=O)N2CCc3cc(CNC(=O)c4ccco4)ccc32)c1`, the “activation” value is inactive: -17.4%.
Regarding `CCOc1ccc(CCNC(=O)NCc2noc3ccc(C)cc23)cc1`, the “activation” value was inactive: -18.7%.
As for `CCc1oc2ccccc2c1C(=O)c1cc(Br)c(O)c(Br)c1`, the “activation” value is inactive: -9.74%.
On to `COC(=O)CN1C(=O)C(O)(c2c(C)[nH]c3ccccc23)c2ccccc21` (stereo not given), for which the “activation” value is inactive: -17.1%.
For `CCCn1c2ccccc2c2cnn(CC(=O)NCC3CCN(Cc4ccccc4C)CC3)c(=O)c21`, the “activation” value was inactive: 1.71%.
In the case of `COc1ccccc1CNc1nccn(-c2ccc(F)cc2)c1=O`, the “activation” value was inactive: -0.161%.
Consider `Cc1ccc(-n2ncc3c(Nc4ccc5c(c4)OCCO5)ncnc32)cc1Cl`, for which the “activation” value is inactive: -16.4%.
On to `Cc1ccc(C(=O)c2oc3ccccc3c2NC(=O)c2cc(-c3ccccc3)on2)cc1`, for which the “activation” value is inactive: -0.437%.
To `CCOCCCN1C(=O)CN(C2CCCCCC2)C(=O)C1c1ccc(OCC)c(OC)c1` (stereo not given) belongs inactive: -12%.
